# Assay results taken from the RNAGym collection of RNA variant scans (doi:10.1093/nar/gkz1192).
# Read counts are not given, so values of variants with three or more changes are uncertain.
# B1: CPEB3 Ribozyme (parent)
# chain: UAACAGGGGGCCACAGCAGAAGCGUUCACGUCGCAGCCCCUGUCAGAUUCUGGUGAAUCUGCGAAUUCUGCUGUAUAUCUC
# Variants of: B1
# Test: self-cleavage, relative activity (ratio to wild type); higher = more cleavage; in vitro, sequencing
# Outline: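 Barcoded CPEB3 ribozyme mutants, produced by rounds of error-prone PCR, self-cleaved while being transcribed with T7 RNA polymerase for 5 hours at 37°C and during a subsequent 15 min DNase I step before EDTA was added. Sequencing of template-switched cDNA on Illumina gave cleaved and total reads, and DNA sequencing assigned barcodes to variants. Each variant's relative activity is its cleaved/total read fraction divided by the unmutated ribozyme's fraction, averaged across three batches. A variant needed a minimum of 5 reads.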
row,Variant,self-cleavage
1,A21U C44A U67A U72A,0.11
2,A21U C44G U74C,0.26
3,A21U C62U A65G U66C,0.06
4,A21U G42A U51C,0.31
5,A21U G53C A57G,0.32
6,A21U U25C A45G U51A A56U U66C U78C,0.03
7,A21U U25C A65G U80C,0.26
8,A21U U25C G30A U31C U72C A77U U80C,0.04
9,A21U U25C U31C,0.25
10,A21U U25C U54C C68U,0.13
11,A21U U25C U80A,0.3
12,A21U U26A A45G A47U U66C,0.09
13,A21U U26A U41C A65G U80A,0.04
14,A21U U26A U51C U78C,0.19
15,A21U U26C A35U A56G,0.05
16,A21U U26C C37A U58C U72G U80C,0.1
17,A21U U31C C32A,0.09
18,A21U U31C C71A,0.1
19,A21U U31C U78C,0.39
20,A21U U31G C50U U76C,0.22
21,A21U U41A A64G,0.24

row,Variant,self-cleavage
1,A21U U41A U43G G63A A64G,0.1
2,A21U U41A U49C C50G A57G U60A,0.08
3,A21U U41A U51A,0.13
4,A21U U41A U60G U78A,0.22
5,A21U U41G G70A,0.18
6,A21U U48C U51C,0.16
7,A21U U48C U51C U74A,0.06
8,A21U U48C U60C,0.12
9,A21U U54C A65G A75G,0.08
10,A21U U58C A64U U72G,0.12
11,A21U U60C G63U,0.2
12,A21U U60C U78C,0.11
13,G22A A28G U48C,0.07
14,G22A A28U A35G G36U,0.12
15,G22A A56U U60C,0.12
16,G22A A56U U69A C71A,0
17,G22A C29A C40U,0.17
18,G22A C32U U51C A56U U69A U72A,0.06
19,G22A C37U U41C A45U U69A,0.15
20,G22A G42A A57G A65G A75G A77G,0.04
21,G22A U25C U49C G63A U78C,0.09

row,Variant,self-cleavage
1,G22A U25G U48C U51A,0.19
2,G22A U26C U41A,0.11
3,G22A U26C U58C A65G U67A,0.43
4,G22A U31C U49C,0.44
5,G22A U48A G52C A65G U76C,0.05
6,G22A U51G U60C,0.12
7,G22A U60A U69A G73A,0.07
8,G22A U67C U74C,0.18
9,G22A U69A C79U,0.11
10,G22A U72C A77U,0.16
11,G22C A35G C71G,0.05
12,G22C U26A U43C,0.08
13,G22C U48C U60C,0.11
14,G22U A45G U72A U80C,0.3
15,G22U A56G A57G G73A,0.19
16,G22U A56G U60C,0.15
17,G22U A65G U67C,0.12
18,G22U G33A A47G A77U,0.06
19,G22U G61A C71U U80G,0.08
20,G22U U25C A28U U41C U51A A57U U69C,0.05
21,G22U U25C U26A G33A,0.14

row,Variant,self-cleavage
1,G22U U48G U49A G63A U69C,0.07
2,G22U U49C A56G,0.15
3,G22U U66C U69C U76C,0.04
4,G22U U67C U69C,0.28
5,C23A A28G C37G A56G,0.23
6,C23A A28G U54G A64G U80C,0.15
7,C23A A35G A64U U80G,0.07
8,C23A A35G U67C,0.08
9,C23A A35G U72A,0.07
10,C23A A35U U41A,0.18
11,C23A A35U U41C,0.08
12,C23A A45U U60C,0.2
13,C23A A64G U67A U76C,0.16
14,C23A C27A C39A,0.16
15,C23A C27A G30A C34G U41C U43A,0.32
16,C23A C27G U74C,0.38
17,C23A C34U U60C,0.08
18,C23A G52U U66C U67C,0.08
19,C23A G52U U72A,0.08
20,C23A G55C A57G U76A,0.05
21,C23A U25C A35C A45G A77G,0.08
